# In the supplement of paper PMC12217912:
# The list shows a part of the results. The full chains were built here from the parent and the listed change. Inactive controls read about 0.05.
# B1: TEV protease; numbered along this chain (parent)
# chain: MGESLFKGPRDYNPISSSICHLTNESDGHTTSLYGIGFGPFIITNKHLFRRNNGTLVVQSLHGVFKVKDTTTLQQHLVDGRDMIIIRMPKDFPPFPQKLKFREPQREERICLVTTNFQTKSMSSMVSDTSCTFPSGDGIFWKHWIQTKDGQCGSPLVSTRDGFIVGIHSASNFTNTNNYFTSVPKNFMELLTNQEAQQWVSGWRLNADSVLWGGHKVFMVKPEEPFQPVKEATQL
# Variants of: B1
# Assay: raw area under fraction-flipped curve 0-4 h after induction (AUC4h, not background-subtracted), DNA-recorder readout of cleavage of the substrate (dimensionless); higher = more cleavage of the substrate by the protease variant
# Settings: temperature: 34 °C; time window: 0-4 h after rhamnose induction
# Experimental: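 In vivo DNA recorder in E. coli TOP10(DE3) ΔrhaA at 34 °C. Each TEVp single-site mutant (parent TEVp 0) is paired with a single-site variant of the 7-mer TEVs (canonical ENLYFQ|S). The substrate sits between flexible linkers in a Bxb1-sfGFP-TEVs-SsrA fusion, so cleavage stabilises Bxb1 and speeds flipping of a recombination array, read by NGS. The value is the raw area under the fraction-flipped curve over 0-4 h after rhamnose induction (AUC4h), with ≥20 reads per time point. It is not background-subtracted; inactive controls average about 0.047.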
# 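Note: Bxb1 expression induced with 0.2% (w/v) L-rhamnose at OD600 near 0.5, cultures sampled hourly, flipped fraction per protease–substrate barcode pair counted by paired-end Illumina sequencing.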
Variant,area with substrate EALYFQS,area with substrate ECLYFQS,area with substrate EHLYFQS,area with substrate EILYFQS,area with substrate EQLYFQS,area with substrate ESLYFQS,area with substrate ETLYFQS,area with substrate EGLYFQS,area with substrate ERLYFQS,area with substrate EVLYFQS,area with substrate EFLYFQS,area with substrate EKLYFQS,area with substrate ELLYFQS,area with substrate EMLYFQS,area with substrate EWLYFQS,area with substrate EELYFQS,area with substrate EYLYFQS,area with substrate EDLYFQS,area with substrate EPLYFQS
P94C,0.161,0.144,0.15,0.0915,0.129,0.0948,0.159,,,,,,,,,,,,
P94L,0.135,,,0.119,,,,0.0955,0.134,0.144,,,,,,,,,
F95P,0.0591,0.0487,,0.0471,0.0649,0.0494,,0.0565,,,0.0535,0.0393,0.052,0.0728,0.0609,,,,
F95Q,0.0783,0.0776,0.0797,,,0.083,0.105,0.0853,,,,,,,,,,,
Q97M,0.146,,,0.11,0.122,0.0988,,0.0904,,,,,,0.136,0.0815,0.142,0.131,,
K98H,0.133,0.117,,0.0934,0.141,0.104,0.132,,0.102,0.103,,0.102,0.105,0.107,0.13,0.155,0.0938,0.118,
L99A,0.0574,0.0854,,0.0928,0.125,,,,0.0871,0.0995,0.0872,0.105,0.105,,,,0.0908,,0.114
F101A,0.0748,,0.0806,0.0631,,,,,0.065,,,0.0773,0.0681,,,,,,
R102F,0.0655,,0.0413,0.0448,,0.0489,,0.0714,0.037,0.0485,0.0465,,0.06,0.0454,0.0456,0.0559,,0.0118,
R102L,0.0591,0.0275,,0.0499,0.0578,0.0421,,,0.0576,0.0486,,0.0468,,0.0491,0.0719,0.0559,,,0.0362
R102V,0.0605,0.0509,0.0622,,,0.0932,0.0315,0.0598,,,,0.0561,,,0.0715,,0.0507,0.0576,
Q105V,0.114,,,0.0992,0.118,0.126,,,,0.131,0.161,0.0986,,,,0.136,0.139,,0.0776
E107D,0.0951,0.084,0.107,0.102,0.102,0.114,,0.097,0.106,0.0971,0.087,,0.0925,0.0955,0.0843,0.145,0.102,0.122,0.119
E107Q,0.147,0.1,,,0.102,0.125,0.113,0.1,0.0962,0.0973,,,,0.0954,,,0.106,0.0995,
E107V,0.136,0.117,0.0937,0.0955,0.108,0.0882,0.073,,0.0963,0.107,,0.108,0.0655,0.104,0.093,,0.0796,,0.0958
E108R,0.0635,,,0.0641,0.0709,,0.057,,0.0577,0.055,,0.0345,0.0648,0.0611,,,0.073,0.0755,
E108W,0.0682,0.0604,0.0679,,0.0568,0.0647,0.0641,0.0667,0.0599,0.0866,0.0477,0.0512,,0.0617,,,,,

Variant,area with substrate EALYFQS,area with substrate ECLYFQS,area with substrate EHLYFQS,area with substrate EILYFQS,area with substrate EQLYFQS,area with substrate ESLYFQS,area with substrate ETLYFQS,area with substrate EGLYFQS,area with substrate ERLYFQS,area with substrate EVLYFQS,area with substrate EFLYFQS,area with substrate EKLYFQS,area with substrate ELLYFQS,area with substrate EMLYFQS,area with substrate EWLYFQS,area with substrate EELYFQS,area with substrate EYLYFQS,area with substrate EDLYFQS,area with substrate EPLYFQS
R109D,0.0625,0.0601,,,,0.0956,,,,0.0986,0.0975,,,0.107,,0.133,,0.12,0.112
R109M,0.078,0.106,,,,0.137,,,0.109,0.0808,,0.129,0.111,,,,,,
I110A,0.0987,0.0798,0.123,,,,,,,0.0868,,0.0729,,,,,,0.124,
V113E,0.0743,,,0.0645,0.0754,0.0741,,,0.0648,0.0882,,,0.0721,,0.0628,0.0502,,,
T114G,0.117,0.14,,0.0959,0.108,0.109,0.0898,0.0854,,0.112,,,0.0805,,,0.112,0.0919,0.15,0.142
T115I,0.104,0.102,0.1,0.0861,0.121,,0.0836,0.0709,,0.083,,0.0896,,,,,,,
N116G,0.104,0.108,,0.0845,,0.0738,0.136,,0.0803,0.097,,0.114,0.0949,0.117,,,,0.105,0.135
N116I,0.0975,,0.0937,,,0.0885,,,,0.0842,,,0.0859,,,,,0.089,
F117I,0.106,0.108,0.12,,0.0874,0.0903,,0.0441,0.102,0.0812,,,,,,,0.0906,,
Q118E,0.108,0.0877,,0.0639,,0.0996,,0.0675,,0.108,,0.0985,0.113,0.106,,,0.0704,0.0974,
T119K,0.124,0.138,,0.107,,0.0773,,,0.131,,,0.168,0.0899,,,,0.101,,
T119N,0.188,0.0834,,,0.171,0.182,0.147,,0.136,0.0974,,0.132,0.0822,,0.127,,0.0909,,0.165
M125F,0.132,0.0762,,0.0886,,0.115,,0.128,,0.116,0.096,0.131,0.0968,,,,,,
V126D,0.0977,0.161,0.111,0.0996,,0.0891,0.105,0.107,,0.0682,0.0879,,0.0829,,,0.148,,0.104,
S127N,0.12,0.124,,,0.148,0.106,,0.102,0.1,0.0908,,0.0962,,0.118,,0.139,0.117,0.144,0.139
S127R,0.0928,0.138,0.136,0.0856,0.135,0.109,,,0.106,,,0.119,0.0947,,,0.139,,,
